Test results as given in the supplement of paper PMC10441789.
This is one part of the list. Antibody binding of pooled human sera (four to six donors per pool; dilution not stated) to peptides of the Trypanosoma cruzi antigen TSSA on microarrays. Quantile-normalised fluorescence in arbitrary units, mean of duplicate arrays; higher = more binding. No active / inactive call. The uninfected pools are read here as the healthy donors of the same country. The strongest signals lie near the top of the scale (about 60,000).

Legend:
Assay in all cases: antibody binding signal (normalised fluorescence) (arbitrary fluorescence units); higher = stronger serum antibody binding to peptide
[1] = tested on: pooled sera of chronic Chagas disease patients, Bolivia
Description: (§1)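 Microarray of 15-residue peptides over residues 30-55 of Trypanosoma cruzi TSSAII, each with 1 to 10 substitutions at naturally variable positions, probed with one serum pool per country.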

[2] = tested on: pooled sera of chronic Chagas disease patients, Brazil
Description: as §1

[3] = tested on: pooled sera of chronic Chagas disease patients, Colombia
Description: as §1

[4] = tested on: pooled sera of chronic Chagas disease patients, Mexico
Description: as §1

[5] = tested on: pooled sera of chronic Chagas disease patients, USA
Description: as §1

[6] = tested on: pooled sera of uninfected people, Argentina
Description: as §1

[7] = tested on: pooled sera of uninfected people, Bolivia
Description: as §1

[8] = tested on: pooled sera of uninfected people, Brazil
Description: as §1

[9] = tested on: pooled sera of uninfected people, Colombia
Description: as §1

[10] = tested on: pooled sera of uninfected people, Mexico
Description: as §1

[11] = tested on: pooled sera of uninfected people, USA
Description: as §1

| Sequence | antibody binding signal [1] | antibody binding signal [2] | antibody binding signal [3] | antibody binding signal [4] | antibody binding signal [5] | antibody binding signal [6] | antibody binding signal [7] | antibody binding signal [8] | antibody binding signal [9] | antibody binding signal [10] | antibody binding signal [11] |
| --- | --- | --- | --- | --- | --- | --- | --- | --- | --- | --- | --- |
| GTEKKTATGETPSPP | 907 | 1590 | 1160 | 1970 | 8000 | 330 | 631 | 201 | 135 | 209 | 573 |
| GTDNKTATGGTPSPP | 885 | 27400 | 626 | 439 | 439 | 260 | 707 | 1810 | 517 | 260 | 152 |
| GTENKAATGETPSPP | 12600 | 24200 | 1670 | 1850 | 14400 | 145 | 340 | 125 | 201 | 132 | 955 |
| KENKTAAGGTPSPSG | 184 | 285 | 2420 | 208 | 1250 | 174 | 87.2 | 353 | 109 | 188 | 133 |
| KAAAGGTPSQPGASS | 164 | 451 | 4620 | 267 | 920 | 309 | 120 | 422 | 148 | 261 | 119 |
| PPSGKENKPAAGETP | 30800 | 6490 | 876 | 2470 | 13200 | 3970 | 3560 | 304 | 1040 | 339 | 657 |
| PSGTENKTAAGGTPS | 21800 | 44600 | 10200 | 5720 | 11100 | 1280 | 640 | 1190 | 526 | 3040 | 601 |
| GKENKTAAGGAPSPP | 277 | 2240 | 4750 | 1620 | 7200 | 369 | 108 | 673 | 122 | 165 | 124 |
| NKPAAGGTPSPPGAS | 416 | 2510 | 1550 | 322 | 326 | 648 | 1110 | 1240 | 1710 | 201 | 1580 |
| TDKKPAAGGTPSQPG | 201 | 772 | 6030 | 262 | 926 | 165 | 838 | 1690 | 269 | 359 | 213 |
| TDKKTATGGTPSPSG | 635 | 668 | 4420 | 550 | 1770 | 250 | 109 | 259 | 823 | 106 | 133 |
| PPSGKDNKAATGGAP | 299 | 2400 | 550 | 2280 | 2350 | 521 | 426 | 126 | 239 | 91.6 | 239 |
| TSSTPPSGTEKKTAA | 3160 | 30400 | 847 | 11200 | 4130 | 1960 | 296 | 126 | 143 | 93.4 | 331 |
| PPSGKEKKAATGETP | 627 | 2680 | 2590 | 4690 | 8070 | 689 | 649 | 111 | 441 | 85.1 | 223 |
| ENKTAAGEAPSQPGA | 30300 | 43100 | 231 | 275 | 9610 | 175 | 251 | 308 | 205 | 223 | 188 |
| GKENKAAAGGAPSPP | 287 | 5130 | 5140 | 2470 | 11700 | 352 | 86.5 | 91.9 | 122 | 122 | 132 |
| SGTDNKAATGETPSP | 6400 | 42400 | 279 | 276 | 12500 | 122 | 640 | 1070 | 200 | 280 | 1190 |
| GTENKTAAGGAPSPS | 481 | 566 | 5770 | 1030 | 620 | 444 | 436 | 390 | 302 | 432 | 201 |
| KDKKPAAGGAPSPSG | 231 | 205 | 1730 | 259 | 475 | 110 | 74.1 | 125 | 69.8 | 72.5 | 106 |
| PSGTEKKPAAGGAPS | 5370 | 16000 | 10400 | 8650 | 7590 | 703 | 437 | 316 | 314 | 591 | 822 |
| PPSGTEKKAATGGTP | 1010 | 12400 | 1060 | 2840 | 3610 | 972 | 525 | 650 | 1030 | 123 | 226 |
| ENKTATGGAPSPSGA | 1960 | 950 | 542 | 400 | 1200 | 399 | 180 | 669 | 183 | 282 | 200 |
| TDKKTAAGEAPSQPG | 15100 | 35500 | 354 | 450 | 7490 | 246 | 259 | 410 | 867 | 175 | 107 |
| GTENKPATGGTPSPP | 4680 | 6200 | 890 | 2210 | 1500 | 424 | 1550 | 644 | 429 | 261 | 162 |
| PPSGKENKAAAGEAP | 5150 | 6700 | 1270 | 2540 | 9620 | 4110 | 2190 | 359 | 1230 | 238 | 356 |
| EKKPATGETPSQSGA | 25500 | 32600 | 311 | 230 | 22900 | 257 | 704 | 381 | 197 | 1810 | 798 |
| GTENKAAAGETPSPS | 682 | 5310 | 1060 | 1600 | 3880 | 133 | 407 | 113 | 146 | 287 | 1930 |

| Sequence | antibody binding signal [1] | antibody binding signal [2] | antibody binding signal [3] | antibody binding signal [4] | antibody binding signal [5] | antibody binding signal [6] | antibody binding signal [7] | antibody binding signal [8] | antibody binding signal [9] | antibody binding signal [10] | antibody binding signal [11] |
| --- | --- | --- | --- | --- | --- | --- | --- | --- | --- | --- | --- |
| SGKEKKPAAGGAPSP | 1680 | 4430 | 6440 | 8100 | 5330 | 199 | 147 | 124 | 121 | 87.6 | 241 |
| ENKTAAGGTPSQSGA | 1510 | 593 | 6200 | 512 | 1560 | 426 | 250 | 1650 | 197 | 2500 | 233 |
| ENKPATGGTPSPPGA | 3410 | 2980 | 285 | 714 | 537 | 300 | 574 | 418 | 360 | 158 | 224 |
| DKKTATGGAPSQPGA | 516 | 767 | 2780 | 760 | 615 | 376 | 210 | 123 | 112 | 543 | 224 |
| TENKTATGGAPSPPG | 1350 | 682 | 455 | 811 | 838 | 384 | 188 | 337 | 148 | 402 | 185 |
| GKDKKTAAGGTPSQS | 222 | 193 | 3330 | 372 | 1480 | 177 | 83.6 | 242 | 104 | 142 | 113 |
| GKDNKPAAGGTPSPP | 208 | 274 | 782 | 628 | 580 | 181 | 515 | 443 | 211 | 198 | 81.2 |
| GKEKKAAAGGTPSQS | 176 | 233 | 1780 | 2130 | 2000 | 108 | 75.1 | 544 | 106 | 107 | 77.2 |
| KKAATGEAPSQSGAS | 7150 | 23700 | 150 | 172 | 17500 | 392 | 123 | 106 | 207 | 204 | 292 |
| GTEKKTATGGTPSPP | 523 | 1080 | 5540 | 1760 | 3190 | 303 | 734 | 456 | 908 | 134 | 147 |
| SGTDNKAATGEAPSQ | 40300 | 43400 | 190 | 283 | 30300 | 209 | 618 | 1010 | 120 | 125 | 155 |
| KENKTATGEAPSPSG | 10300 | 14500 | 862 | 438 | 20200 | 204 | 141 | 142 | 180 | 140 | 163 |
| SGTENKTAAGEAPSQ | 21200 | 17600 | 405 | 385 | 9320 | 326 | 364 | 192 | 304 | 183 | 174 |
| SGTDKKAAAGETPSQ | 1430 | 6570 | 5180 | 432 | 1100 | 152 | 338 | 189 | 769 | 1130 | 153 |
| STPPSGKENKTAAGE | 30100 | 13300 | 374 | 4810 | 3550 | 2040 | 1670 | 219 | 1090 | 274 | 301 |
| ENKPATGEAPSPSGA | 48200 | 51800 | 276 | 498 | 40200 | 1020 | 577 | 277 | 114 | 173 | 192 |
| EKKAAAGEAPSPPGA | 222 | 6590 | 431 | 334 | 11200 | 165 | 968 | 115 | 115 | 208 | 1060 |
| ENKPATGGAPSQSGA | 17900 | 8250 | 388 | 1000 | 4040 | 457 | 1260 | 336 | 184 | 259 | 300 |
| SGTEKKPAAGGTPSP | 278 | 4360 | 8500 | 2650 | 2260 | 161 | 1020 | 1720 | 243 | 364 | 1520 |
| DNKPATGGTPSQPGA | 963 | 16800 | 851 | 435 | 456 | 334 | 492 | 636 | 378 | 942 | 177 |
| KKPAAGGAPSPSGAS | 232 | 401 | 1600 | 303 | 428 | 198 | 125 | 113 | 79.3 | 69.9 | 242 |
| TEKKPAAGGAPSPSG | 224 | 572 | 6540 | 596 | 1880 | 212 | 226 | 395 | 118 | 239 | 1160 |
| SGKDNKTAAGETPSP | 532 | 1240 | 3600 | 1190 | 3200 | 261 | 325 | 170 | 675 | 229 | 495 |
| SGTDNKTATGEAPSP | 28500 | 40900 | 169 | 188 | 21000 | 130 | 549 | 821 | 142 | 108 | 154 |
| EKKTATGGTPSPSGA | 595 | 441 | 4170 | 608 | 1590 | 331 | 758 | 412 | 642 | 160 | 795 |
| KDNKAAAGGTPSQSG | 192 | 182 | 743 | 155 | 936 | 235 | 1030 | 416 | 192 | 94.4 | 89.5 |
